About 2,200 (0.71%) of roughly 310,000 compounds showed an effect of 50% or more. Effects have a minus sign here. This is one part of the list.

In this assay the target is human ether-à-go-go-related gene (hERG) potassium channel (human, UniProt Q12809). The assay is described as follows: primary screen, population patch clamp on CHO cells stably expressing hERG.
Sequence of human ether-à-go-go-related gene (hERG) potassium channel (Q12809 whole entry, looked up): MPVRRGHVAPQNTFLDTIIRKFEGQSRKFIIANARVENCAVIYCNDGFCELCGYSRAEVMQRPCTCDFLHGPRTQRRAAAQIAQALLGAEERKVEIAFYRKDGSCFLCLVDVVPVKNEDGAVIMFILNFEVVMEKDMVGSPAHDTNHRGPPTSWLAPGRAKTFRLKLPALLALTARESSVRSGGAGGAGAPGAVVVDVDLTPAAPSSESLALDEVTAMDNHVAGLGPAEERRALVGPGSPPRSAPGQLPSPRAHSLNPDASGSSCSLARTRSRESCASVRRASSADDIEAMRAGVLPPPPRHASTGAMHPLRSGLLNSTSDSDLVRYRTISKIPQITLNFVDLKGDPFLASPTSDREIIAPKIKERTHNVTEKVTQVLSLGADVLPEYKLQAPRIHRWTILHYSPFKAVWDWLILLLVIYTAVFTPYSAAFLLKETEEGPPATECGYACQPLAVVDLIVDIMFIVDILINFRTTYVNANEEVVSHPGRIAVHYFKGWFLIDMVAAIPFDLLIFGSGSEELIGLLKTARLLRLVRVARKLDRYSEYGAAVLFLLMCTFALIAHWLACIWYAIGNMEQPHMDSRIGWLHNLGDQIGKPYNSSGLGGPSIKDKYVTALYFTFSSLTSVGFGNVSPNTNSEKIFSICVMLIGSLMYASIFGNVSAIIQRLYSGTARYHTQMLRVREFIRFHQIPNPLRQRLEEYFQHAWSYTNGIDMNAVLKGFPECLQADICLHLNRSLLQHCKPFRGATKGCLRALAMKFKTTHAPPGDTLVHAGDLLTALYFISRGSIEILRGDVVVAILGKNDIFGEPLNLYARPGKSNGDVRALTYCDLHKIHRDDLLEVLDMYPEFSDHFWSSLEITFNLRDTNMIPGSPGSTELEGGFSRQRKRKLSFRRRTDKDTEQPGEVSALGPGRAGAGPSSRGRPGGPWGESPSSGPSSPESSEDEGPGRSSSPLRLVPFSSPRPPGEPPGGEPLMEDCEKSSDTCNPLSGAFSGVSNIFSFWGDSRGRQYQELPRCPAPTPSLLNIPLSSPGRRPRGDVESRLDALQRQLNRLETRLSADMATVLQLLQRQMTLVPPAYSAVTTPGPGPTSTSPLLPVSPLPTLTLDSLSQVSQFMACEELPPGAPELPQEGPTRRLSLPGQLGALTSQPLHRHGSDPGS
On to `CC1(C)Oc2ccc3ccc(=O)oc3c2/C(=C/O)C1=O`, for which the “hERG current change (%, negative = inhibition) at 1uM” value worked out at 10.2%.

With `O=C(O)CN1C(=O)/C(=C2\SC(=S)N(C(Cc3ccccc3)C(=O)O)C2=O)c2ccccc21` (stereo not shown), the “hERG current change (%, negative = inhibition) at 1uM” value is recorded as 8.47%. The result for `Cc1ccccc1C1=NCC(=O)N(CC(=O)NCc2ccco2)c2sc3c(c21)CCCC3` reads -1.4%; that for `N#Cc1c(N2CCCC2)ccc(Br)c1Cl`, 16.2%; that for `Cc1cccc(NC(=O)C2CCN(C(=O)N3CCOc4ccccc43)CC2)c1C`, 11.1%.

`COc1ccc(CCNC(=O)c2cc(-c3ccccn3)nc3ccccc23)cc1`: the “hERG current change (%, negative = inhibition) at 1uM” value is recorded as 2.16%. Take `CCOc1ccc(N2C(N)=NC(N)=NC2(C)C)cc1.Cl`: the “hERG current change (%, negative = inhibition) at 1uM” value is on record as -1.57%. With `Cc1cc(C)n2nc(C(=O)Nc3cccnc3)nc2n1`, the “hERG current change (%, negative = inhibition) at 1uM” value is on record as 0.504%. Take `C(=N\N(Cc1ccccc1)c1ccccc1)/c1cccnc1`: the “hERG current change (%, negative = inhibition) at 1uM” value is given as 10.3%. For the molecule `O=C(OCC(=O)N(C1CCCCC1)C1CCCCC1)c1ccco1`, the “hERG current change (%, negative = inhibition) at 1uM” value was determined as 9.71%. Regarding `O=C(CSc1nnc(SCc2cccc3ccccc23)s1)N/N=C/c1c[nH]c2ccccc12`, the “hERG current change (%, negative = inhibition) at 1uM” value is reported as -0.74%. On to `CC(C)NC(=O)[C@H](CSCc1ccccc1)N1Cc2ccccc2C1=O`, for which the “hERG current change (%, negative = inhibition) at 1uM” value was -13%. The result for `CC(C)(C)C(=O)NNC(=O)c1cc(C(C)(C)C)nn1Cc1ccccc1` reads 7.83%; that for `COc1ccc(C(C(=O)NCc2ccccc2)N(C(=O)c2snc(C(N)=O)c2N)C2CCCC2)cc1O` (stereo not shown), -8.53%; that for `Cc1ccc(OCc2nnc(SCC(=O)N3C(C)CCCC3C)o2)cc1` (stereo not shown), 10.8%. Regarding `O=C1C2C3C=CC(CO)(O3)C2C(=O)N1c1ccc(-c2ccccc2)cc1` (stereo not shown), the “hERG current change (%, negative = inhibition) at 1uM” value is given as 12.7%. Next, `Cc1ccc(NS(=O)(=O)c2cc([N+](=O)[O-])ccc2NNC(=S)Nc2cccc(Cl)c2)c(C)c1`: 7.69%; `CCN1C(=O)CC(N2CCN(c3ccc(C(=O)c4ccncc4)cc3)CC2)C1=O` (stereo not shown): 18%. For the molecule `CCN(CC#CCC(O)(c1ccccc1)c1ccccc1)C(C)C.Cl`, the “hERG current change (%, negative = inhibition) at 1uM” value is given as 3.1%. As to `Cc1ccc(/C=C/C(=O)Nc2ccc(S(N)(=O)=O)cc2)o1`, the “hERG current change (%, negative = inhibition) at 1uM” value was determined as 7.37%.

Consider `O=C1CN(C(=O)NCC(=O)N2CCCC2)c2ccccc2N1`, for which the “hERG current change (%, negative = inhibition) at 1uM” value worked out at 16.9%. The result for `Cc1[nH]c(-c2ccc(F)cc2)cc1C(=O)N1CCN(c2ccc(Cl)cc2)CC1` reads 10.5%. Next, `COc1ccc(CC(=O)Nc2c3c(nn2C(C)(C)C)CS(=O)(=O)C3)cc1OC`: 4.43%; `O=C(NCc1ccccc1)NC(=O)c1ccccc1`: -13.2%.

Consider `Cc1c(-n2c(SCC(=O)C(C)(C)C)nc3ccccc3c2=O)c(=O)n(-c2ccccc2)n1C`, for which the “hERG current change (%, negative = inhibition) at 1uM” value was 6.58%.

Turning to `N#C/C(=C(/O)c1ccc([N+](=O)[O-])s1)c1nc2ccccc2[nH]1`, the “hERG current change (%, negative = inhibition) at 1uM” value amounted to 12.4%. Regarding `Cc1cc(N2C3CCC2CC(O)(c2ccc(F)cc2)C3)nc(-c2ccccc2)n1` (stereo not shown), the “hERG current change (%, negative = inhibition) at 1uM” value is given as 9%.

Turning to `COc1cc2c(cc1OC)C(C(=O)NC(C)c1ccccc1)CC(=O)N2` (stereo not shown), the “hERG current change (%, negative = inhibition) at 1uM” value is recorded as 15.5%. Turning to `O=C(Cc1ccc(F)cc1)Nc1nccs1`, the “hERG current change (%, negative = inhibition) at 1uM” value stood at 9.15%. The result for `COc1ccc(-c2c(C)nn(-c3ccccc3)c2N)cc1` reads -0.597%. The result for `COC(=O)c1ccc(CNCC(=O)Nc2ccc(C(=O)OC)cc2)cc1` reads 9.02%. The result for `CN(C)c1ccc(CC2C(=O)Nc3ccccc32)cc1` (stereo not shown) reads 5.22%; that for `FC(F)(F)c1cccc(N2CCN(Cc3ccoc3)CC2)c1`, -13.1%; that for `O=C(CSc1nc2ccccc2c(=O)n1-c1ccc(F)c(Cl)c1)Nc1cccc(S(=O)(=O)N2CCOCC2)c1`, 10.9%. `Cc1cccc(NC(=O)COC(=O)CCc2ccc(S(=O)(=O)N3CCOCC3)cc2)c1C`: the “hERG current change (%, negative = inhibition) at 1uM” value stood at 9.84%. In the case of `COc1cc(N(C)C)c([N+](=O)[O-])cc1C(=O)N1CCOCC1`, the “hERG current change (%, negative = inhibition) at 1uM” value stood at 6.64%. For `Cc1occc1C(=O)NNC(=O)C(c1ccccc1)c1ccccc1`, the “hERG current change (%, negative = inhibition) at 1uM” value is on record as 10.6%.

Turning to `O=C(OCc1nnc(-c2cccs2)o1)c1cccnc1Cl`, the “hERG current change (%, negative = inhibition) at 1uM” value was determined as 13.1%. On to `COc1ccc(S(=O)(=O)N2CCOC2CNC(=O)C(=O)NCCN(C)C)cc1` (stereo not shown), for which the “hERG current change (%, negative = inhibition) at 1uM” value came out at 12%. With `O=C(c1ccc(Br)cc1)c1cc([N+](=O)[O-])ccc1N1CCOCC1`, the “hERG current change (%, negative = inhibition) at 1uM” value was found to be 7.76%.

In the case of `Cc1noc(/C=C/N(C)C)c1S(=O)(=O)N1CCCC(C(=O)Nc2ccccc2F)C1` (stereo not shown), the “hERG current change (%, negative = inhibition) at 1uM” value was 8.7%. Next, `COc1ccc(-n2c(=O)c3c4c(sc3n3c(=S)[nH]nc23)CCCC4)cc1`: 8.8%; `COc1ccc(-c2noc(CSc3nc(N)cc(=O)[nH]3)n2)cc1`: 9.84%.

Values taken from PMC4336329 (PLoS ONE, 2015).
